Over roughly 33,000 sequences, “E-score (-0.5 to 0.5)” has its median near -0.041; the highest 2% begin near 0.37. The list shows a part of the results.
biological target: T1, Ecm22 (UniProt Q05958); test: PBM E-score (8-mer binding enrichment) (E-score (-0.5 to 0.5)); higher = stronger / more preferred TF binding; most listed sequences are background and not binding sites; conditions: protein concentration: 200 nM; construct: GST-full length
T1 sequence: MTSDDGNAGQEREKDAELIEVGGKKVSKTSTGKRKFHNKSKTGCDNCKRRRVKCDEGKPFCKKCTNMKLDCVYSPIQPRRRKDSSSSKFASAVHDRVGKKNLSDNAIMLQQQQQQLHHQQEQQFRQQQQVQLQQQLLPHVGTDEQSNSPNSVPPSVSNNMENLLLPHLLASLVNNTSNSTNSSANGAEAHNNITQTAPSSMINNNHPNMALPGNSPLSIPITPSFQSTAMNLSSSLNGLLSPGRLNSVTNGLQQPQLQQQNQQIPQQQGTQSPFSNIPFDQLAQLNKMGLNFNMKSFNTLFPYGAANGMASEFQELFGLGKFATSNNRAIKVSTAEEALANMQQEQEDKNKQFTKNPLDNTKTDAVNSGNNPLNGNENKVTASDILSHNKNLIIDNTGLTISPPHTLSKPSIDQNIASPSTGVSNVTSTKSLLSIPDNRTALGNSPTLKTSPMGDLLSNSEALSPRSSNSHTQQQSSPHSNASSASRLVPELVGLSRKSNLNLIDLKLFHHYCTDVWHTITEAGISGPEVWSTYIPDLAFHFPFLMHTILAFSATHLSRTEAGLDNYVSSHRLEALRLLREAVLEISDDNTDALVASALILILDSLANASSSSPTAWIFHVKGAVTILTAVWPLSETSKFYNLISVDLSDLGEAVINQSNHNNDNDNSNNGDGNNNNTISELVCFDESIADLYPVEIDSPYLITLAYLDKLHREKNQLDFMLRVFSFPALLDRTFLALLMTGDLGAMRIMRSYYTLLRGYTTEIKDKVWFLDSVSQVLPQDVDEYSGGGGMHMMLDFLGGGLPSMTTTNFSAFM
In short: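 GST-tagged yeast TFs (full-length or DNA-binding domain) were made by PURExpress in vitro transcription/translation and applied at about 100-200 nM to universal all-10-mer Agilent arrays. The arrays were made double-stranded by primer extension, on fresh or once-stripped slides. Bound protein was detected with fluorescent anti-GST, and scans were normalised with masliner. Each ungapped eight-base word, pooled with its reverse complement, received an E-score (modified Wilcoxon-Mann-Whitney statistic) from the Universal PBM Analysis Suite.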

| Sequence | PBM E-score |
| --- | --- |
| TCCGCAGA | -0.0845 |
| ATCCGCGC | 0.0953 |
| AATCTCGG | 0.129 |
| CATACATG | 0.0482 |
| CTCCAAGC | -0.141 |
| GGGCGCGA | 0.155 |
| AGAGGAAG | -0.167 |
| CAGCCTCC | -0.272 |
| ACTCGCAA | 0.205 |
| ATGTTACG | 0.223 |
| CCCTCAGC | -0.0277 |
| AAATCACG | 0.123 |
| CCCGCGGC | 0.00541 |
| GGCCTCAA | -0.111 |
| AGCCCCGG | 0.00976 |
| GGGTTTTA | 0.0146 |
| ACGCCCGG | -0.0888 |
| CTTTACTC | -0.126 |
| CGGGGCTA | -0.157 |
| AAGTCTTG | -0.0433 |
| AGTACCCA | -0.208 |
| CTGCTCCC | -0.073 |
| TCCTTAAA | -0.1 |
| ATAAAGTA | -0.0364 |
| AAAAGCTA | 0.00415 |

| Sequence | PBM E-score |
| --- | --- |
| CACCCTCA | -0.223 |
| ATCTCCGA | 0.105 |
| CGCACAAC | 0.226 |
| TCTTCACA | 0.0421 |
| ATGAAGCC | -0.0926 |
| ACTGAGTC | -0.0115 |
| GTGATATA | 0.102 |
| CACCTAGC | -0.227 |
| GGCCGCGA | -0.113 |
| AGGAATTG | -0.0722 |
| CAGCTGAA | -0.185 |
| CCGAGTAG | 0.0401 |
| ATCCCGGG | 0.0366 |
| GATGCTGA | -0.109 |
| ACGGAAAG | -0.008 |
| GACGCTAC | 0.0696 |
| TGTCACAA | -0.161 |
| CTATACCC | -0.0698 |
| CTTACCAA | 0.0619 |
| ACTAACCT | -0.00368 |
| GTACCGCA | 0.284 |
| AATGAATA | 0.156 |
| CGGACGAG | -0.0963 |
| GCCTGTCC | -0.00321 |
| CCAACACG | 0.0109 |

| Sequence | PBM E-score |
| --- | --- |
| GGCCCCCA | -0.328 |
| ACGACCCC | 0.167 |
| CTACTAGC | 0.182 |
| AACGGCAT | 0.183 |
| ACAACAGT | -0.17 |
| CAGATGAC | -0.208 |
| ACTCAAAC | 0.00062 |
| AACAATTG | -0.0918 |
| GGGGGGTA | -0.282 |
| GACTTACC | -0.0762 |
| CTCAGCGC | -0.273 |
| CTGATACA | -0.0548 |
| CGACTACG | 0.151 |
| CGCAGATC | -0.123 |
| AAACTCAT | -0.0166 |
| AGCCACAC | 0.0634 |
| TAAACTCA | -0.0105 |
| CGGCGCCG | 0.0265 |
| CGAGTCAA | 0.1 |
| AAGCCTAA | -0.0818 |
| ATGCATGA | 0.0112 |
| CTAGACTC | -0.277 |
| ATACCGTC | 0.0334 |
| CAATTGTG | -0.023 |
| AAGTCTCC | -0.161 |

| Sequence | PBM E-score |
| --- | --- |
| CATGAGCA | -0.214 |
| CGAAACAG | 0.153 |
| TGCGTGAA | -0.0835 |
| GCTACCAC | -0.209 |
| CAGCTGTC | -0.112 |
| AGGTGCAT | -0.19 |
| AAGGGGTA | -0.217 |
| AACACCGA | -0.0321 |
| AGACATGC | -0.143 |
| AACTCTCC | -0.139 |
| AGACCGTG | -0.192 |
| ACGTGAGC | -0.227 |
| GCATCACA | -0.0326 |
| GTCTTGCA | -0.134 |
| AGCTCGCC | 0.197 |
| AATCTACT | -0.163 |
| GCATCGAA | 0.0551 |
| CTGCGGGA | -0.163 |
| ATTCGTGG | -0.00589 |
| GCCTACAC | -0.0224 |
| GTCTGACA | -0.0954 |
| ACGCGTCA | 0.177 |
| ACCCAGGG | -0.286 |
| TAACATCA | -0.0597 |
| GAATCCGC | -0.0414 |

| Sequence | PBM E-score |
| --- | --- |
| TAGGACGA | -0.216 |
| CCGACCGC | -0.0494 |
| TGATCCAA | -0.197 |
| ATTGCGTA | 0.2 |
| AAGTGGCC | -0.248 |
| AAGTACTA | 0.138 |
| ATAGCTAT | 0.0944 |
| CATCCGCG | 0.0321 |
| AATGACGT | -0.0386 |
| CGTAATGA | 0.129 |
| ATAAGGAT | 0.071 |
| ACAGCTTA | 0.0621 |
| CTTGAAGA | -0.29 |
| ACTATACA | 0.108 |
| CGAGGGTA | 0.225 |
| TAATATGA | 0.083 |
| CTCGAGAA | 0.0569 |
| GTAAAACA | 0.0963 |
| AGTAGTTA | -0.179 |
| AGTCGGAT | 0.122 |
| ATGCTAGG | -0.0553 |
| CGCTATGA | 0.0292 |
| GCTGGTAA | -0.147 |
| CGGCATCA | 0.0766 |
| AAGTCATT | -0.206 |

| Sequence | PBM E-score |
| --- | --- |
| CAATGAGC | -0.269 |
| TATAAAAA | 0.0731 |
| AGAGGTAG | -0.333 |
| CGGCGTCC | -0.14 |
| ACCGCTAC | 0.119 |
| AGTCGCCC | -0.349 |
| CGAGCCCA | 0.125 |
| GGAGATGA | -0.157 |
| AAACGAAC | 0.454 |
| CGCTACCA | 0.00702 |
| TACGAGCA | 0.467 |
| CAACACCA | -0.15 |
| GGTGATGA | -0.112 |
| GGTCAACA | -0.173 |
| CATCAACC | 0.0609 |
| CATTTTGC | -0.0711 |
| AGGGATAC | -0.0261 |
| AACCAGCG | -0.0573 |
| CCTTTTCC | 0.055 |
| GTTGCTGA | 0.063 |
| ACAAACAC | -0.0112 |
| AGCGCATG | -0.243 |
| CATTAGCG | 0.0731 |
| ATGCTCAG | -0.183 |
| AGCAGAAA | 0.0162 |

| Sequence | PBM E-score |
| --- | --- |
| AGAGATGA | -0.169 |
| GTTCATGA | 0.204 |
| CTCAATAC | -0.0168 |
| ACTTTGAC | -0.00106 |
| ATGAAGCA | -0.3 |
| GATTCCTA | -0.0542 |
| AACCCAAC | -0.0376 |
| ACTAGAAA | -0.124 |
| TAGTCCCA | -0.146 |
| TGTATACA | 0.0967 |
| GCAGCCTA | -0.028 |
| GTGCATTA | -0.0444 |
| ATTTAAGC | 0.2 |
| CGAATCCA | 0.23 |
| TCCCTTCA | -0.124 |
| ACACCCAG | -0.2 |
| CTATCCAA | -0.203 |
| AATAAGGG | 0.00161 |
| AACATCGG | -0.075 |
| CACATCGG | 0.027 |
| AGCATCTA | -0.154 |
| GGCACCTA | -0.0654 |

Source: the supplement of paper PMC3334620
